Values joined by “and” are separate entries in the source; they are usually repeats but may differ in a detail not shown here. Equal entries are not always repeated. Whole data set: some 5,300 compounds, median “PER2::LUC luminescence relative to vehicle control” near 0.96, cut for the highest 2% near 1.3. This is one part of the list.
System: mPer2Luc MEF
Assay: PER2::LUC luminescence relative to vehicle control (fold of vehicle); higher = higher PER2::LUC reporter signal
Conditions: 10 µM
Summary of the method: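 Mouse embryonic fibroblasts carrying the mPer2Luc reporter were seeded at ~3000 cells per well in 384-well plates, 48 h before compounds from commercial libraries were added at 10 μM. Cells were grown in DMEM with 10% FBS at 37 °C and 5% CO2. Luminescence was read with the ONE-Glo luciferase assay system 24 h and 30 h after treatment, followed by an alamarBlue viability assay. The value is PER2::LUC luminescence as fold of vehicle control.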

SMILES	PER2::LUC luminescence (time after treatment 24 h)	PER2::LUC luminescence (time after treatment 30 h)
CC(C)(C)NC(=O)[C@H]1CC[C@H]2[C@@H]3CC[C@H]4NC(=O)C=C[C@]4(C)[C@H]3CC[C@]12C	0.824	1.22
CC(C)=CCCC1(C)C=Cc2c(O)c3c(c(CC=C(C)C)c2O1)OC12C(=CCCC1C(C)(C)O[C@@]2(C/C=C(\C)C(=O)O)C(=O)O)C3=O (some centres not stated)	0.994	0.959
C=C1CC[C@H](O)C/C1=C/C=C1\CCC[C@]2(C)[C@@H]([C@H](C)/C=C/[C@H](C)C(C)C)CC[C@@H]12	0.957 and 0.908	1.15 and 0.89
Nc1nc(N)c2nc(-c3ccccc3)c(N)nc2n1	0.822 and 1.03	1.17 and 0.912
C[N+](C)(C)CC(O)CC(=O)[O-] (racemic)	1.07 and 0.921	1.03 and 0.954
CC(=O)NC(CC(C)C)C(=O)O (configuration not stated)	1	1.05
CC(C)C(=O)c1c(C(C)C)nn2ccccc12	1.04	0.829
C[C@H]1[C@H]2CC[C@H]3[C@@H]4CC=C5C[C@@H](N(C)C)CC[C@]5(C)[C@H]4CC[C@]23CN1C	0.747	0.801
O=C(O)c1c[nH]c(=O)cn1	1.08	0.999
Nc1ncnc2c1ncn2[C@@H]1O[C@@H]2COP(=O)(O)O[C@H]2[C@H]1O	1.08	0.954
CC1=C(/C=C/C(C)=C/C=C/C(C)=C/C=C/C=C(C)/C=C/C=C(C)/C=C/C(=O)[C@]2(C)C[C@@H](O)CC2(C)C)C(C)(C)C[C@H](O)C1	0.964	0.922
CCS(=O)(=O)N1CCN(c2ccc(Nc3ncc(C(N)=O)c(NC4CC4)n3)cc2)CC1	0.537	0.546
Cn1cnc(=N)c2[nH]cnc21	1.12	1.07
C[N+](C)(C)C[C@H](O)CC(=O)[O-]	1.05	1.03
O=C(O[C@@H]1Cc2c(O)cc(O)cc2O[C@@H]1c1cc(O)c(O)c(O)c1-c1c([C@H]2Oc3cc(O)cc(O)c3C[C@H]2OC(=O)c2cc(O)c(O)c(O)c2)cc(O)c(O)c1O)c1cc(O)c(O)c(O)c1	0.983	0.904
CC(=O)/C(=C\c1ccccc1)CC(=O)O	0.926	0.97
OC(CCN1CCCC1)(c1ccccc1)C1CCCCC1 (configuration not stated)	0.699	0.797
CC(C)NCC(O)COc1cccc2[nH]ccc12 (configuration not stated)	0.955	0.911
CC(C)=CCC[C@@H](C)[C@@H]1CC[C@]2(C)C3=C(CC[C@@]12C)[C@@]1(C)CC[C@H](O)C(C)(C)[C@@H]1CC3	1.01	1.15
O=C1NCC(=O)N2[C@H](c3ccc4c(c3)OCO4)c3[nH]c4ccccc4c3C[C@H]12	1.02	1.07
COC(=O)[C@H]1[C@H]2C[C@H]3c4[nH]c5ccccc5c4CCN3C[C@H]2CC[C@@H]1O	0.94 and 0.903	1.05 and 0.815

SMILES	PER2::LUC luminescence (time after treatment 24 h)	PER2::LUC luminescence (time after treatment 30 h)
C=C(C)[C@@H]1CC[C@]2(C)CC[C@]3(C)[C@H](CC[C@@H]4[C@@]5(C)CC[C@H](OC(C)=O)C(C)(C)[C@@H]5CC[C@]43C)[C@@H]12	1.02	0.98
COC(=O)C(C)(N)Cc1ccc(O)cc1 (racemic)	1.07	0.857
CN1CCN(c2ccc(C(=O)Nc3cc(-c4cccc(NS(=O)(=O)c5ccccc5)c4)[nH]n3)cc2)CC1	0.63	0.549
CC(CN(C)C)CN1c2ccccc2CCc2ccccc21 (configuration not stated)	0.653	0.699
Cn1c(N2CCCCS2(=O)=O)nc(C(=O)NCc2ccc(F)cc2)c(O)c1=O	1.21	1.11
NC(=O)c1ccccc1	0.926	1.02
O=C(O)CCCCCCCC(O)C(O)CCCCCCO (configuration not stated)	0.99	0.949
COC(=O)[C@@]1(C)CCC[C@]2(C)c3ccc(O)c(C(C)C)c3CCC12 (some centres not stated)	0.896	0.996
CC1(C)O[C@@H]2C[C@H]3[C@@H]4C[C@H](F)C5=CC(=O)C=C[C@]5(C)[C@H]4[C@@H](O)C[C@]3(C)[C@]2(C(=O)CO)O1	0.756	1.14
Cn1cnc2c(F)c(Nc3ccc(Br)cc3Cl)c(C(=O)NOCCO)cc21	0.913 and 0.678	0.82 and 0.641
Nc1nc(N)c2nc(-c3cccc(O)c3)c(-c3cccc(O)c3)nc2n1	1.09	1.04
C[C@H](CS)C(=O)N1CCC[C@H]1C(=O)O	1.08	0.774
CN(Cc1cc(Br)cc(Br)c1N)C1CCCCC1	0.918	0.763
C[C@H](Cc1ccc(O)c(O)c1)[C@@H](C)Cc1ccc(O)c(O)c1	1.02	1.14
NCCc1ccc(O)c(O)c1	0.939 and 0.903	0.914 and 0.872
O=C(/C=C/c1cccnc1)NCCCCC1CCN(C(=O)c2ccccc2)CC1	0.942 and 0.881	0.638 and 0.631
COc1c(Cl)cc2c([nH]c3cnccc32)c1NC(=O)c1cccnc1C	1.06	1.03
COc1cc(N2CCOCC2)ccc1NC(=O)c1csc(-c2cccnc2)n1	0.906	1.02
Cc1c(Nc2ncccc2C(=O)O)cccc1C(F)(F)F	0.962 and 0.968	1.06 and 1
CC[C@H](c1ccc(O)cc1)[C@@H](CC)c1ccc(O)cc1	1.08	1.14
COc1ccc(CCO[C@@H]2CCCC[C@H]2N2CC[C@@H](O)C2)cc1OC	0.953	0.958

SMILES	PER2::LUC luminescence (time after treatment 24 h)	PER2::LUC luminescence (time after treatment 30 h)
COc1cc(N)c(Cl)cc1C(=O)OCCN1CCCCC1	1.03	0.733
O=C(NCc1cccs1)c1cc2nc(-c3ccco3)cc(C(F)(F)Cl)n2n1	1.03	1.11
CCCNC(=O)N1N=C(c2ccc(N)cc2)c2cc3c(cc2C1C)OCO3 (configuration not stated)	1	0.864
OC[C@@H](O)CN1CCN(c2ccccc2)CC1	1.06	0.996
N#CC1(c2ccc(NC(=O)c3cccnc3NCc3ccncc3)cc2)CCCC1	0.769	0.8
CC(ONC(=O)c1cc(C(F)(F)F)cc(C(F)(F)F)c1)C(=O)Nc1ccc(Cl)cc1 (configuration not stated)	1.02	1.02
CCCCCC(O)CCCC(=O)O (configuration not stated)	0.968	0.932
CCCN(CC1CC1)c1nc(C)nc(Nc2c(Cl)cc(Cl)cc2Cl)c1Cl	0.986	1.01
CN1CCN(C(=O)c2cc3cc(Cl)ccc3[nH]2)CC1	0.966	1.03
O=C1NC(c2cccc([N+](=O)[O-])c2)=CCN1c1ccccc1O	0.797	0.848
CC(=O)OCC(=O)[C@@]1(O)CC[C@H]2[C@@H]3CCC4=CC(=O)C=C[C@]4(C)[C@H]3[C@@H](O)C[C@@]21C	0.769	1.08
C[C@]12CCC(=O)C=C1CC[C@@H]1[C@@H]2[C@@H](O)C[C@@]2(C)[C@H]1CC[C@]2(O)C(=O)COP(=O)(O)O	0.663	0.984
COc1ccc(CNc2nc(N3CCC[C@H]3CO)ncc2C(=O)NCc2ncccn2)cc1Cl	0.865	0.884
Nc1ncnc2c1ncn2C1CCCC1	1.06	0.926
COC(=O)N[C@H](C(=O)N1CC2(CC2)C[C@H]1c1nc(-c2ccc3c(c2)C(F)(F)c2cc(-c4ccc5[nH]c([C@@H]6[C@H]7CC[C@H](C7)N6C(=O)[C@@H](NC(=O)OC)C(C)C)nc5c4)ccc2-3)c[nH]1)C(C)C	0.737	0.647
CC1(C)CC2C1CCC1(C)OC1CCC2(C)O (configuration not stated)	0.987	0.902
C[C@H]1C[C@H]2[C@@H]3CCC4=CC(=O)C=C[C@]4(C)[C@H]3C(=O)C[C@]2(C)[C@@]1(O)C(=O)CO	0.908	0.982
CCC(=O)OCC(=O)[C@@]1(OC(=O)CC)[C@@H](C)C[C@H]2[C@@H]3CCC4=CC(=O)C=C[C@]4(C)[C@@]3(F)[C@@H](O)C[C@@]21C	0.454 and 0.475	1.01 and 0.98
CC1(C)O[C@@H]2C[C@H]3[C@@H]4C[C@H](F)C5=CC(=O)CC[C@]5(C)[C@H]4[C@@H](O)C[C@]3(C)[C@]2(C(=O)CO)O1	0.739	1.19
CC1=CCc2c(cc3oc(C)cc(=O)c3c2O)OC1	1.09	1.21
Cc1ccc(S(=O)(=O)OCC(=O)Nc2ccc(C(=O)O)c(O)c2)cc1	1.1 and 1.22	1.02 and 1.24

SMILES	PER2::LUC luminescence (time after treatment 24 h)	PER2::LUC luminescence (time after treatment 30 h)
Cc1nc(C)c(-c2ccc(C3CCC(CC(=O)O)CC3)cc2)nc1C(N)=O (configuration not stated)	1.05	0.986
O=C(O)CCCN1CCC(O[C@@H](c2ccc(Cl)cc2)c2ccccn2)CC1	1.02	1.04
O=C(Nc1ncc(SCCN2CCCC2)s1)[C@]1(c2ccc(S(=O)(=O)C3CC3)cc2)C[C@H]1C1CCCCC1	0.768	0.883
CCOC(=O)CNC(=O)[C@@H]1CCCN1C(=O)Cc1ccccc1	1.03	0.963
CN(C(=O)CCCOc1ccc2[nH]c(=O)ccc2c1)C1CCCCC1	0.958	0.997
NNC(=O)c1ccncc1	0.977	0.911
COc1ccc(/C=C/c2cc(O)cc(O[C@@H]3O[C@H](CO)[C@@H](O)[C@H](O)[C@H]3O)c2)cc1O	1.21	1.22
COc1ccc(-c2ccc3cc(C(=O)O)ccc3c2)cc1C12CC3CC(CC(C3)C1)C2	1.49	1.86
CCN1CCCC1CNC(=O)c1cc(S(N)(=O)=O)ccc1OC (configuration not stated)	0.878	0.849
Nc1cc(C(F)(F)F)c(-c2nc(N3CCOCC3)nc(N3CCOCC3)n2)cn1	0.401	0.317
COc1cc2c(NC3CCN(CC4CCCCC4)CC3)nc(N3CCCN(C(C)C)CC3)nc2cc1OCCCN1CCCCC1	0.625	0.772
O=C(O)c1cc2cc(F)ccc2[nH]1	1.06	1.02
CCCCc1oc2ccccc2c1C(=O)c1cc(I)c(OCCN(CC)CC)c(I)c1	0.468	0.632
Cc1cc(=O)c(C(=O)N[C@@H](C(=O)N[C@@H]2C(=O)N3C(C(=O)O)=C(CSc4nnnn4C)CS[C@H]23)c2ccc(O)cc2)c[nH]1	1.07	1.1
O=C(O)c1cccnc1	0.962 and 1.13	0.879 and 1.14
C=CCNC1=C2C[C@@H](C)C[C@H](OC)[C@H](O)[C@@H](C)/C=C(\C)[C@H](OC(N)=O)[C@@H](OC)/C=C\C=C(/C)C(=O)NC(=CC1=O)C2=O	0.091	0.069
N[C@@H](COP(=O)(O)O)C(=O)O	0.986 and 1.01 and 0.908	0.937 and 0.899 and 0.846
Cc1cccc(N(C)C(=S)Oc2ccc3ccccc3c2)c1	1.01	1.15

From the supplement of paper PMC9334596
